Source: ChEMBL document CHEMBL1157539, “Thousands of chemical starting points for antimalarial lead identification” (Nature, 2010)
The full ranking holds about 13,000 compounds; the median of “IFI” is about 4, and the highest 2% start at about 17. Some of the results follow.

Assay: GSK_TCMDC: Inhibition Frequency Index (IFI). The number of non-kinase HTS assays where a compound showed > 50 % inhibition, expressed as a percentage of the number of such assays in which the compound was tested (-0 is zero)
Assay type: functional

Compound | IFI [%]
CS(=O)(=O)CCCNCc1ccc(-c2cc3c(Nc4ccc(OCc5ccccc5)cc4)ncnc3cn2)o1 | 3.65
Cc1cc(Cc2ccc(S(=O)(=O)c3cc4c(cc3O)CCN(C)CC4)cc2)ccc1Cl | 12.7
N#Cc1ccc2c(c1)CCN(CCC1CCC(NC(=O)/C=C/c3cc(Br)cs3)CC1)CC2 (centres undefined) | 2.14
CCNc1cc(C(=O)N[C@@H](Cc2ccccc2)[C@H](O)CNC(CC)c2cccc(Cl)c2)cc(N2CCCCS2(=O)=O)c1 (some centres undefined) | 4.96
COc1cccc2c(NN=Cc3cccc(Cl)c3)cc(C)nc12 | 2.88
Clc1ccccc1C=NN=c1cc[nH]c2ccccc12 | 2.96
CC1SC(=S)NC1C(=O)O (centres undefined) | 0.76
Nc1ncc(-c2cn[nH]c2)cc1-c1nc2ccc(Cl)cc2[nH]1 | 3.03
CCOc1cc(OCC)c2ccccc2c1CNCCCCCCNCc1c(OCC)cc(OCC)c2ccccc12 | 16
Cc1cccc2nc(-c3ccc(-c4ccc(NC(=O)NCc5cccc(F)c5)cc4)cc3)[nH]c12 | 4
CC(C)CNCc1ccc(-c2cccc(-c3nc4ccccc4[nH]3)c2)cc1 | 10.3
CC(C)CCNC(=N)Nc1ccc(OCCCOc2ccc(NC(=N)NCCC(C)C)cc2)cc1 | 5.04
CCc1sc(N2CCC(C)CC2)nc1C(=O)Nc1ccc(F)cc1C(F)(F)F | -0
CCN(CC)CCN(Cc1ccc(-c2ccc(C(F)(F)F)cc2)cc1)C(=O)Cn1c(SCc2ccc(F)cc2)nc(=O)c2ccccc21 | 7.14
O=S(=O)(Nc1cccc(CCN2CCCCC2CCN2CCCC2)c1)c1ccc(-c2ccccc2)cc1 (centres undefined) | 14.5
Cc1cc(NCCC(=O)Nc2ccccc2)nc(NCCc2ccccc2)n1 | 2.27
CN(C)CCC1CCCc2ccc(NC(=O)Nc3cccc(Cl)c3Cl)cc21 (centres undefined) | 3.88
CCC1N=C(N)N=C(N)N1OCCCOc1c(Cl)cc(Cl)cc1Cl (centres undefined) | 5.76
CC[C@H]1CN(CCCC(=O)c2ccccc2)CC[C@H]1CCCc1ccnc2ccc(OC(=O)c3ccccc3)cc12 | 12.2
CC(C)(C)OC(=O)NCc1ccc(Nc2nnc(-c3cccc(C(=O)NCCC(c4ccccc4)c4ccccc4)c3)o2)cc1 | 6.67
Cn1cnc2c(SCc3ccc(OCc4ccccc4)cc3)ncnc21 | 5
Nc1nccc2ccc(-c3cccc(OCc4ccccc4)c3)cc12 | 19.8
CCOC(=O)c1c(CN(CC)CC)n(-c2ccccc2)c2cc(Br)c(O)cc12 | 1.48

Compound | IFI [%]
c1ccc(CNc2nc(NCCc3c[nH]cn3)nc(NCc3cccc4ccccc34)n2)cc1 | 1.5
O=C(Nc1ccc(N2CCN(c3ncccc3C(F)(F)F)CC2)nc1)c1cccs1 | 14
O=C(Cn1nc(Br)nc1[N+](=O)[O-])NCC1CCCCC1 | 2.99
C=CCn1c(C)cc(C(=O)COc2ccc(S(=O)(=O)N3CCOCC3)cc2[N+](=O)[O-])c1C | 0.95
Cc1cn(CC(=O)Nc2cccc(-c3cccc(-c4nc5cccc(C)c5[nH]4)c3)c2)c(=O)[nH]c1=O | -0
CCOc1ccc(N2C(N)=NC(N)=NC2(C)C)cc1 | -0
COc1ccc(OC)c2c1CC1NCC2c2c(OC)ccc(OC)c21 (centres undefined) | 0
CN(C)c1ccc(-c2csc(C(=O)NC3CCN(Cc4ccc(C(C)(C)C)cc4)C3)c2)cc1 (centres undefined) | 14.6
COc1ccc2nccc([C@@H](O)CN3CCC(NC(=O)c4ccc(-c5ccccc5)s4)CC3)c2c1 | 5.22
O=C(NC1CCN(Cc2ccc3c(c2)OCCO3)CC1)c1ccc(-c2cccc(Cl)c2)s1 | 15.2
NC(=O)CCC(NC(=O)CNC(=O)Nc1cccc(C(F)(F)F)c1)C(=O)O (centres undefined) | 19.9
O=C(NCCCCN1CCC(c2ccc(-c3ccco3)cc2)CC1)c1ccc(NC(=O)c2ccc(Cl)cc2)cc1 | 5.98
COC(=O)c1sc(-c2ccc(Cl)cc2)cc1N(CCCN1CCC(N2CCCCC2)CC1)S(=O)(=O)c1ccc(C)cc1 | 11.6
CCn1cc(CN2C(=O)C(c3ccccc3)(c3ccccc3)N=C2N)cn1 | 0.85
O=C(NCc1ccc(Cl)cc1)c1ccc(CN2CCCN(CC3CCCCC3)CC2)cc1 | 3.31
CCCc1cc(NC2CCN(C)CC2)nc(Nc2ccc(F)cc2)n1 | 2.99
Cc1c2ccncc2c(C)c2c1[nH]c1cc(Cc3ccccc3)c(O)cc12 | 11.8
COc1cc(Nc2nccc(N3CCC(NC(=O)c4cc5ccccc5s4)C3)n2)cc(OC)c1OC (centres undefined) | 4.55
CN1CCN(c2ccc(CNc3ccc4ncc(-c5ccc(OC(F)(F)F)cc5)n4n3)cc2)CC1 | 5.51
O=[N+]([O-])c1ccccc1/C=N/Nc1ccnc2ccc(C(F)(F)F)cc12 | 0.74
O=C(Cn1c(CCc2cccc(F)c2F)nc(=O)c2ccccc21)N(CCCN1CCCCC1)Cc1ccc(-c2ccc(C(F)(F)F)cc2)cc1 | 10.4
CCN(CC)CCN(Cc1ccc(-c2ccc(C(F)(F)F)cc2)cc1)C(=O)Cn1c(CCc2cccc(F)c2F)nc(=O)c2cc(C)ccc21 | 3.73
Clc1ccc2c(NN=Cc3ccco3)ccnc2c1 | 4.79

Compound | IFI [%]
Cc1ccc2c(=O)c3cc(C)ccc3[nH]c2c1 | 1.46
COc1ccc(C2CCN(CCCCNC(=O)c3ccc(NC(=O)c4ccc(Cl)cc4)cc3)C2)c(OC)c1 (centres undefined) | 2.65
CN1C(=O)C(=O)N(CCCCCONC(=N)N)C1=S | 0.71
Cc1ccc(CNC(=O)c2ccc(CN3CCCN(Cc4ccsc4)CC3)cc2)cc1 | 4.03
CN(C)CCN(Cc1ccccc1)c1ccc([N+](=O)[O-])cc1C(F)(F)F | 3.5
CC(C)c1ccc2c(c1)c(SC(C)(C)C)c(CC(C)(C)C#N)n2Cc1ccc(Cl)cc1 | 0.76
CCCCOP(=O)(COc1ccc(CCN(CC(O)COc2cccc3[nH]c4ccccc4c23)CC(O)COc2cccc3[nH]c4ccccc4c23)cc1)C1CCCCC1 (centres undefined) | 1.5
CC(C)COc1ccc(Cl)cc1Cc1ccc(-c2nc3ccc(F)c(F)c3[nH]2)o1 | 11.3
CC1C(c2cccc(Cl)c2)OCC(C)(C)N1C(=O)CCN1CCCCC1 (centres undefined) | 0.75
CO/C(=C\C=C\c1cc2cc(Cl)c(Cl)cc2[nH]1)C(=O)NCCCN1CCN(c2cccc(CCO)c2)CC1 | 13.5
OC(CNc1ccnc(Nc2cccc(Cl)c2)n1)c1cccc(F)c1 (centres undefined) | 12.4
COc1cc2nc(N3CCC(CNC(=O)c4cc(Br)c(Br)s4)CC3)nc(N)c2cc1OC | 8.62
CN(C)S(=O)(=O)c1ccc(N2CCN(CCC3(c4cccc(F)c4)CCN(C(=O)C(C)(C)C)CC3)CC2)c2nonc12 | 9.79
N#Cc1ccc(N2CCN(Cc3ccc(-c4cccc(-c5nc6ccccc6[nH]5)c4)cc3)CC2)nc1 | 2.86
Cc1ccc(Cc2c[nH]c(NCCSCc3ccc(CN4CCOCC4)o3)nc2=O)cn1 | 0
CC(=O)c1cccc(NC(=O)c2ccc(Cl)c(S(=O)(=O)N3CCc4ccccc43)c2)c1 | 3.54
O=C(Nc1ccc(Cl)cc1)N(CC1CC2CCC(C1)N2Cc1ccc(C(F)(F)F)cc1)c1ccc(N2CCOCC2)c(F)c1 (centres undefined) | 7.87
COc1cc(C2NCC3(CCOCC3)c3cc4c(cc32)OCCO4)cc(OC)c1OC (centres undefined) | 2.78
COCCN1CCC(N(Cc2ccc(-c3ccc(C(F)(F)F)cc3)cc2)C(=O)Cn2c(CCc3cccc(F)c3F)cc(=O)c3c2CCC3)CC1 | 1.45
CC(=O)N[C@H](C(=O)Nc1ccc(-c2cccc(-c3nc4cccc(C)c4[nH]3)c2)cc1)C(C)C | 1.8
Cn1cncc1C(=O)Nc1cccc(-c2ccc(-c3nc4cc(F)ccc4[nH]3)cc2)c1 | 2.68
CS(=O)(=O)Cc1ccc(Nc2nccc(-c3c(-c4cccc(C(=O)Nc5c(F)cccc5F)c4)nn4ccccc34)n2)cc1 | 7.87
Cc1cccc2nc(-c3cccc(-c4ccc(NC(=O)Cc5c[nH]cn5)cc4)c3)[nH]c12 | 1.85

Compound | IFI [%]
COc1cc(N(Cc2ccccc2C)S(=O)(=O)Cc2ccccc2[N+](=O)[O-])c(OC)cc1Cl | 0.68
CN(C)CCc1coc2ccc(C(=O)Nc3ccc(-c4ccc(O)cc4)cc3)cc12 | 4.38
CC(C)(CNC(=O)/C=C/c1ccc(Cl)c(Cl)c1)CNc1cc(=O)c2ccccc2[nH]1 | 3.6
CN(C)CCC(O)(c1ccc(Br)cc1)c1cccnc1 (centres undefined) | 0
O=[N+]([O-])c1cccc(Nc2cncc(-c3ccc(CO)cc3)c2)c1 | 4.55
O=C(Cc1c[nH]cn1)Nc1cccc(-c2ccc(-c3nc4cc(C(F)(F)F)ccc4[nH]3)cc2)c1 | 7.41
CC(C)CN1CCCN(Cc2cccc(NC(=O)c3cc4ccccc4s3)c2)CC1 | 3.05
CCCCN(CCCC)CCNC(=O)c1ccc(-c2nc3cc(Cl)ccc3[nH]2)c(OCC)c1 | 0.72
O=C1C(c2ccccc2)=C(Nc2ccc(Cl)cc2)c2ccccc21 | -0
CN(C)CCCSc1ccccc1NC(=O)C=Cc1ccccc1 | -0
Clc1cc(Nc2ncnc3sc(C#Cc4ncc[nH]4)cc23)ccc1OCc1ccccn1 | 0.88
CCNc1cc(C)nc(Nc2ccc(NS(=O)(=O)c3cc(OC)ccc3OC)cc2)n1 | 13.5
Fc1ccc2[nH]c(-c3cccc(-c4cccc(CNCc5cnn(-c6ccccc6)n5)c4)c3)nc2c1 | 3.28
Cc1cc(C)c(NC(=O)NC2CCN(CCCCCNC(=O)/C=C/c3ccc(Cl)c(Cl)c3)CC2)c(C)c1 | 3.33
Cc1cc(NCc2ccc(F)cc2)nc2cc(O)ccc12 | 10.7
Cc1cc(-c2ccc(CNC3CCN(C)CC3)cc2)ccc1S(=O)(=O)NCc1ccccc1 | 9.52
COC(=O)COc1cc(C(=O)NCCCCN2CCC(c3ccc4c(c3OC)CCCC4)CC2)ccc1-c1ccc(Cl)cc1 | 12.9
COc1ccc2nccc([C@@H](O)CN3CCC(NCc4ccc5nc[nH]c(=O)c5c4)CC3)c2c1 | -0
CN=c1nc(NN=Cc2ccccc2Cl)[nH]c(=Nc2cccc(C(F)(F)F)c2)[nH]1 | 3.2
COc1ccc(Nc2ncc3c(-c4cccc(NC(=O)CC(C)C)c4)c[nH]c3n2)cc1OC | 6.62
